Measured values reported in the supplement of paper PMC8728848.
The list shows a part of the results.

Key:
Experiment in all cases: glycan array binding signal (z-score within array); higher = stronger binding
Details in all cases: glycan notation: IUPAC condensed, linker removed
[1] = target: GalNAc(b1-4)GlcNAc(b1-2)Man
Method in brief: (§1)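 Arrays were curated from the Consortium for Functional Glycomics database, 3228 in total, and kept only where the protein sequence was available. Binding is expressed as a within-array Z-score. This score was averaged across arrays of the same protein sequence at different concentrations or buffers and across linkers, and negative values can be read as non-binding.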

[2] = target: GalNAc(b1-4)GlcNAc(b1-2)Man(a1-3)[GalNAc(b1-4)GlcNAc(b1-2)Man(a1-6)]Man(b1-4)GlcNAc(b1-4)GlcNAc
Method in brief: as §1

[3] = target: GalNAc(b1-4)GlcNAc(b1-3)GalNAc(b1-4)GlcNAc
Method in brief: as §1

[4] = target: GalNAc(b1-4)GlcNAc6S
Method in brief: as §1

[5] = target: GalNAc(b1-6)GalNAc
Method in brief: as §1

[6] = target: GalNAc3S(b1-4)GlcNAc
Method in brief: as §1

[7] = target: GalNAc3S(b1-4)GlcNAc3S
Method in brief: as §1

[8] = target: GalNAc3S(b1-4)[Fuc(a1-3)]GlcNAc
Method in brief: as §1

[9] = target: GalNAc4S6S(b1-4)GlcNAc
Method in brief: as §1

[10] = target: GalNAc6S(b1-4)GlcNAc
Method in brief: as §1

[11] = target: Glc(a1-4)Glc
Method in brief: as §1

[12] = target: Glc(a1-4)Glc(a1-4)Glc(a1-4)Glc
Method in brief: as §1

[13] = target: Glc(a1-6)Glc(a1-6)Glc
Method in brief: as §1

[14] = target: Glc(a1-6)Glc(a1-6)Glc(a1-6)Glc
Method in brief: as §1

[15] = target: Glc(b1-4)Glc
Method in brief: as §1

[16] = target: Glc(b1-6)Glc
Method in brief: as §1

[17] = target: GlcA(b1-3)Gal
Method in brief: as §1

[18] = target: GlcA(b1-3)GlcNAc
Method in brief: as §1

[19] = target: GlcA(b1-6)Gal
Method in brief: as §1

[20] = target: GlcA3S(b1-3)Gal(b1-4)GlcNAc(b1-2)Man
Method in brief: as §1

[21] = target: GlcA3S(b1-3)Gal(b1-4)GlcNAc(b1-3)Gal(b1-4)Glc
Method in brief: as §1

[22] = target: GlcNAc(a1-3)Gal(b1-4)GlcNAc
Method in brief: as §1

[23] = target: GlcNAc(a1-4)Gal(b1-3)GlcNAc
Method in brief: as §1

[24] = target: GlcNAc(a1-4)Gal(b1-4)GalNAc
Method in brief: as §1

[25] = target: GlcNAc(a1-4)Gal(b1-4)GlcNAc
Method in brief: as §1

[26] = target: GlcNAc(a1-4)Gal(b1-4)GlcNAc(b1-3)Gal(b1-4)Glc
Method in brief: as §1

[27] = target: GlcNAc(a1-4)Gal(b1-4)GlcNAc(b1-3)Gal(b1-4)GlcNAc
Method in brief: as §1

[28] = target: GlcNAc(a1-4)Gal(b1-4)GlcNAc(b1-3)Gal(b1-4)GlcNAc(b1-3)Gal(b1-4)GlcNAc
Method in brief: as §1

[29] = target: GlcNAc(a1-4)Gal(b1-4)GlcNAc(b1-3)Gal(b1-4)[Fuc(a1-3)]GlcNAc(b1-3)Gal(b1-4)[Fuc(a1-3)]GlcNAc
Method in brief: as §1

[30] = target: GlcNAc(a1-6)Gal(b1-4)GlcNAc
Method in brief: as §1

[31] = target: GlcNAc(b1-2)Gal(b1-3)GalNAc
Method in brief: as §1

[32] = target: GlcNAc(b1-2)Man(a1-3)[GlcNAc(b1-2)Man(a1-6)]Man(b1-4)GlcNAc(b1-4)GlcNAc
Method in brief: as §1

[33] = target: GlcNAc(b1-2)Man(a1-3)[GlcNAc(b1-2)Man(a1-6)]Man(b1-4)GlcNAc(b1-4)[Fuc(a1-6)]GlcNAc
Method in brief: as §1

[34] = target: GlcNAc(b1-2)Man(a1-3)[GlcNAc(b1-4)][GlcNAc(b1-2)Man(a1-6)]Man(b1-4)GlcNAc(b1-4)GlcNAc
Method in brief: as §1

[35] = target: GlcNAc(b1-2)Man(a1-3)[GlcNAc(b1-4)][GlcNAc(b1-2)Man(a1-6)]Man(b1-4)GlcNAc(b1-4)[Fuc(a1-6)]GlcNAc
Method in brief: as §1

[36] = target: GlcNAc(b1-2)[GlcNAc(b1-4)]Man(a1-3)[GlcNAc(b1-2)Man(a1-6)]Man(b1-4)GlcNAc(b1-4)GlcNAc
Method in brief: as §1

[37] = target: GlcNAc(b1-2)[GlcNAc(b1-4)]Man(a1-3)[GlcNAc(b1-4)][GlcNAc(b1-2)Man(a1-6)]Man(b1-4)GlcNAc(b1-4)GlcNAc
Method in brief: as §1

[38] = target: GlcNAc(b1-2)[GlcNAc(b1-4)]Man(a1-3)[GlcNAc(b1-4)][GlcNAc(b1-2)[GlcNAc(b1-6)]Man(a1-6)]Man(b1-4)GlcNAc(b1-4)GlcNAc
Method in brief: as §1

[39] = target: GlcNAc(b1-2)[GlcNAc(b1-4)]Man(a1-3)[GlcNAc(b1-4)][GlcNAc(b1-2)[GlcNAc(b1-6)]Man(a1-6)]Man(b1-4)GlcNAc(b1-4)[Fuc(a1-6)]GlcNAc
Method in brief: as §1

[40] = target: GlcNAc(b1-2)[GlcNAc(b1-6)]Man(a1-6)[GlcNAc(b1-2)Man(a1-3)]Man(b1-4)GlcNAc(b1-4)GlcNAc
Method in brief: as §1

[41] = target: GlcNAc(b1-2)[GlcNAc(b1-6)]Man(a1-6)[GlcNAc(b1-2)Man(a1-3)]Man(b1-4)GlcNAc(b1-4)[Fuc(a1-6)]GlcNAc
Method in brief: as §1

[42] = target: GlcNAc(b1-2)[GlcNAc(b1-6)]Man(a1-6)[GlcNAc(b1-4)][GlcNAc(b1-2)Man(a1-3)]Man(b1-4)GlcNAc(b1-4)GlcNAc
Method in brief: as §1

[43] = target: GlcNAc(b1-3)Fuc
Method in brief: as §1

[44] = target: GlcNAc(b1-3)Gal
Method in brief: as §1

[45] = target: GlcNAc(b1-3)Gal(b1-3)GalNAc
Method in brief: as §1

B1: ECL (Erythrina cristagalli), Q6YD91 (protein)
chain: VETISFSFSEFEPGNNDLTLQGAAIITQSGVLQLTKINQNGMPAWDSTGRTLYTKPVHIWDMTTGTVASFETRFSFSIEQPYTRPLPADGLVFFMGPTKSKPAQGYGYLGVFNNSKQDNSYQTLAVEFDTFSNPWDPPQVPHIGIDVNSIRSIKTQPFQLDNGQVANVVIKYDASSKILLAVLVYPSSGAIYTIAEIVDVKQVLPEWVDVGLSGATGAQRDAAETHDVYSWSFHASLPETND
Question: For B1, which “glycan array binding signal (z-score)” value [1] is on record?
Answer: Its value is 0.689.

Question: What about the “glycan array binding signal (z-score)” value [2] of the same binder?
Answer: Its value is 0.796.

Question: What about the “glycan array binding signal (z-score)” value [3] of the same binder?
Answer: The value was 3.31.

Question: And the “glycan array binding signal (z-score)” value [4]?
Answer: The value was 2.18.

Question: What about the “glycan array binding signal (z-score)” value [5] of the same binder?
Answer: Its value is -0.385.

Question: And the “glycan array binding signal (z-score)” value [6]?
Answer: The value was -0.481.

Question: What about the “glycan array binding signal (z-score)” value [7] of the same binder?
Answer: The value was -0.603.

Question: What about the “glycan array binding signal (z-score)” value [8] of the same binder?
Answer: The value was -0.275.

Question: What about the “glycan array binding signal (z-score)” value [9] of the same binder?
Answer: Its value is -0.57.

Question: And the “glycan array binding signal (z-score)” value [10]?
Answer: Its value is -0.442.

Question: What about the “glycan array binding signal (z-score)” value [11] of the same binder?
Answer: The value was -0.188.

Question: And the “glycan array binding signal (z-score)” value [12]?
Answer: The value was -0.257.

Question: And the “glycan array binding signal (z-score)” value [13]?
Answer: The value was -0.235.

Question: What about the “glycan array binding signal (z-score)” value [14] of the same binder?
Answer: Its value is -0.195.

Question: What about the “glycan array binding signal (z-score)” value [15] of the same binder?
Answer: Its value is -0.25.

Question: And the “glycan array binding signal (z-score)” value [16]?
Answer: Its value is -0.304.

Question: What about the “glycan array binding signal (z-score)” value [17] of the same binder?
Answer: Its value is -0.37.

Question: And the “glycan array binding signal (z-score)” value [18]?
Answer: Its value is -0.235.

Question: And the “glycan array binding signal (z-score)” value [19]?
Answer: The value was -0.139.

Question: What about the “glycan array binding signal (z-score)” value [20] of the same binder?
Answer: Its value is -0.385.

Question: What about the “glycan array binding signal (z-score)” value [21] of the same binder?
Answer: The value was -0.219.

Question: And the “glycan array binding signal (z-score)” value [22]?
Answer: The value was -0.366.

Question: What about the “glycan array binding signal (z-score)” value [23] of the same binder?
Answer: Its value is -0.381.

Question: And the “glycan array binding signal (z-score)” value [24]?
Answer: The value was -0.069.

Question: What about the “glycan array binding signal (z-score)” value [25] of the same binder?
Answer: The value was -0.282.

Question: And the “glycan array binding signal (z-score)” value [26]?
Answer: The value was -0.357.

Question: What about the “glycan array binding signal (z-score)” value [27] of the same binder?
Answer: Its value is -0.028.

Question: What about the “glycan array binding signal (z-score)” value [28] of the same binder?
Answer: The value was -0.013.

Question: What about the “glycan array binding signal (z-score)” value [29] of the same binder?
Answer: The value was 0.089.

Question: What about the “glycan array binding signal (z-score)” value [30] of the same binder?
Answer: Its value is -0.358.

Question: And the “glycan array binding signal (z-score)” value [31]?
Answer: The value was -0.238.

Question: And the “glycan array binding signal (z-score)” value [32]?
Answer: Its value is -0.327.

Question: What about the “glycan array binding signal (z-score)” value [33] of the same binder?
Answer: Its value is -0.131.

Question: What about the “glycan array binding signal (z-score)” value [34] of the same binder?
Answer: Its value is -0.432.

Question: And the “glycan array binding signal (z-score)” value [35]?
Answer: The value was -0.165.

Question: And the “glycan array binding signal (z-score)” value [36]?
Answer: The value was -0.158.

Question: What about the “glycan array binding signal (z-score)” value [37] of the same binder?
Answer: The value was -0.235.

Question: And the “glycan array binding signal (z-score)” value [38]?
Answer: The value was -0.239.

Question: And the “glycan array binding signal (z-score)” value [39]?
Answer: Its value is -0.602.

Question: What about the “glycan array binding signal (z-score)” value [40] of the same binder?
Answer: The value was -0.379.

Question: What about the “glycan array binding signal (z-score)” value [41] of the same binder?
Answer: Its value is -0.15.

Question: What about the “glycan array binding signal (z-score)” value [42] of the same binder?
Answer: Its value is -0.424.

Question: And the “glycan array binding signal (z-score)” value [43]?
Answer: Its value is -0.462.

Question: What about the “glycan array binding signal (z-score)” value [44] of the same binder?
Answer: The value was -0.286.

Question: And the “glycan array binding signal (z-score)” value [45]?
Answer: Its value is -0.23.
